# In paper PMC4336329 (PLoS ONE, 2015):
# Hit rate of the full screen: of about 310,000 compounds, about 2,200 (0.71%) showed an effect of 50% or more. Effects have a minus sign here. This is one part of the list.
# Target: human ether-à-go-go-related gene (hERG) potassium channel (human, UniProt Q12809)
# Assay: primary screen, population patch clamp on CHO cells stably expressing hERG
# Sequence of human ether-à-go-go-related gene (hERG) potassium channel (Q12809 whole entry, looked up): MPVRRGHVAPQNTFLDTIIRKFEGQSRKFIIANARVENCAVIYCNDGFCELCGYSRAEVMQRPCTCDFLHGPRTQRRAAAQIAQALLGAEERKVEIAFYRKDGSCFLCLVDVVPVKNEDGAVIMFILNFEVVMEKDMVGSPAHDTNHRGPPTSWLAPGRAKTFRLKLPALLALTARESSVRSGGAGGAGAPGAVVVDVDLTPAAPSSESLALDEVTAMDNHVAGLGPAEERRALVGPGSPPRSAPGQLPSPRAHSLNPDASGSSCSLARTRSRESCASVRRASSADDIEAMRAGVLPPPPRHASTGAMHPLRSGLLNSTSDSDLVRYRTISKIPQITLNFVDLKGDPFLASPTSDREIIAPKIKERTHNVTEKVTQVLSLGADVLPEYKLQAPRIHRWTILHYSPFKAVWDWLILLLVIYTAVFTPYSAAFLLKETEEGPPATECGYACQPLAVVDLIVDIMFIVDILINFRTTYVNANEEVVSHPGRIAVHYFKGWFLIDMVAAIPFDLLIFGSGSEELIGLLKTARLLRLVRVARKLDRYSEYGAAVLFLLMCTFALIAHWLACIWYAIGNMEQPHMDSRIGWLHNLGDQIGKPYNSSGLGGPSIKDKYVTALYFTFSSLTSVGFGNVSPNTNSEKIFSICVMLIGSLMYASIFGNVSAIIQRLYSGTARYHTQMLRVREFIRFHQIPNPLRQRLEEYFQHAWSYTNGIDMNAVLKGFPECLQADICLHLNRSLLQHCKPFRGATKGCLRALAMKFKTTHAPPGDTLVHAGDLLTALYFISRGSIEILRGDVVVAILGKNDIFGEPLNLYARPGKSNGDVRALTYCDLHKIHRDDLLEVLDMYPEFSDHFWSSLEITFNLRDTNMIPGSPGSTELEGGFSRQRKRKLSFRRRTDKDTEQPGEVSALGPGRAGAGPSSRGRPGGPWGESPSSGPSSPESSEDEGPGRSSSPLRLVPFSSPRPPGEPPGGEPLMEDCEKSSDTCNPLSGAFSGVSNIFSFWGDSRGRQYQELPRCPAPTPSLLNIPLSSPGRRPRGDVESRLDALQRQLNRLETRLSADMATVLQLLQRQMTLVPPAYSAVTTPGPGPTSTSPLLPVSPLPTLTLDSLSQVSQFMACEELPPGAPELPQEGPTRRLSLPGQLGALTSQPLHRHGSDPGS
row,SMILES,"hERG current change (%, negative = inhibition) at 1uM [%]"
1,N#C/C(=C\c1c(Cl)cccc1Cl)c1nc2ccccc2o1,2.68
2,CCOC(=O)c1c(O)c2ccccc2n(CC)c1=O,9.28
3,COc1cc(C)ccc1OCc1cc(C(=O)N2CCN(C)C[C@@H]2c2ccccc2)no1,3.18
4,COc1cc(CC2(CCc3ccncc3)C(=O)N(C)C(=O)N(C)C2=O)cc(OC)c1OC,10.2
5,O=C(COc1ccccc1)Nc1nnc(COc2ccccc2)s1,-2.25
6,CCN(Cc1ccccc1)C(=O)CCNS(=O)(=O)c1cc(Br)cnc1N,8.95
7,COc1ccc(/C=C(/NC(=O)c2ccco2)C(=O)NCc2ccco2)cc1OC,11.2
8,O=C(CSc1nc2ccccc2c(=O)n1Cc1ccc(C(=O)NC2CC2)cc1)NCc1ccco1,8.79
9,COc1cccc(-c2cc(C(=O)Nc3ccc(N(C)C(C)=O)cc3)c3cc(Br)ccc3n2)c1,10.7
10,COc1ccc(F)cc1S(=O)(=O)Nc1ccc2c(c1)OCO2,14.2
11,N#C/C(=C/c1ccc(O)cc1)C(=O)NCc1ccc(Cl)cc1,20
12,O=C(COC(=O)CCc1nc2ccccc2c(=O)[nH]1)NC(=O)NC1CCCC1,15.8
13,Cc1oc(-c2ccc(Cl)cc2)nc1CN1CCCC(C(=O)NCCCN2CCOCC2)C1 (stereo not drawn),9.75
14,Cc1ccc(C(=O)NC2CC3CCC(C2)N3C)cc1 (stereo not drawn),10.8
15,O=C(NCCN1C(=O)S/C(=C\c2ccccc2F)C1=O)C1CCN(S(=O)(=O)c2cccs2)CC1,-9.14
16,CCC(=O)Nc1cccc(-c2nnc(SCC(=O)c3ccccc3)n2C)c1,17.5
17,Cn1ccnc1SCC(=O)NC1CCCC1,23.6
18,CCc1ccc(-c2nc(CCl)cs2)cc1.Cl,18.8
19,COc1ccc(C(=O)C2CCCN(Cc3ccc4nonc4c3)C2)c(C)c1 (stereo not drawn),0.937
20,COc1ccc(/C(C)=N\NC(=O)CSc2nnc(C)s2)cc1,2.72
21,O=C(CSCc1ccccc1)Nc1ccccc1,15.4
22,CN1c2ccccc2C(=O)NC1c1ccc([N+](=O)[O-])s1 (stereo not drawn),4.13

row,SMILES,"hERG current change (%, negative = inhibition) at 1uM [%]"
1,CC(=O)c1ccc(NC(=O)CSc2nnc(NC(=O)CN3CCOCC3)s2)cc1,12.4
2,COc1ccc(NC(=O)CN2C(=O)C(C)Oc3ccccc32)cc1OC (stereo not drawn),10.2
3,COc1cc(Cn2c(N)c(C#N)c3nc4ccccc4nc32)cc(OC)c1,12.5
4,O=C(NC(=S)NCCc1ccccn1)c1ccccc1,8.05
5,COc1ccc(C2C=C(c3ccc(Cl)cc3)Nc3nc(NC(C)=O)nn32)cc1 (stereo not drawn),-7.29
6,COc1ccc(C(=O)C2CCCN(C(=O)c3noc4c3CCCC4)C2)c(C)c1 (stereo not drawn),-3.26
7,COC(=O)c1c(NC(=O)CN(c2ccc(C)c(C)c2)S(C)(=O)=O)sc2c1CCCC2,6.14
8,CC1CCCCN1C(=O)N[C@@H](Cc1ccccc1)C(=O)O (stereo partly drawn),3.42
9,CC12CCC(C(=O)N(NC(=O)c3cc(Cl)ccc3O)C1=O)C2(C)C (stereo not drawn),16.7
10,CSCCC1NC(=O)N(CC(=O)Nc2c(C(C)C)cccc2C(C)C)C1=O (stereo not drawn),11.7
11,COc1cc2c(cc1OC)C(C(=O)Nc1ccc3c(c1)OCCO3)C(c1cccnc1)N(C)C2=O (stereo not drawn),5.98
12,COc1ccc(-c2nc(CS(=O)(=O)CC(=O)NCc3cccc(OC)c3OC)c(C)o2)cc1,1.71
13,Cn1cc(C=C(C#N)C#N)c2ccccc21,4.92
14,Cc1ccccc1S(=O)(=O)Cc1ccc(C(=O)NCCCOC(C)C)o1,3.93
15,Cc1cc(=O)oc2cc(OC(=O)c3nn(C(C)C)c(=O)c4ccccc34)ccc12,11
16,COC(=O)c1ccccc1S(=O)(=O)N1CCC(C(=O)NC2=NCCS2)CC1,-0.334
17,CCCOC(=O)C1[C@H]2C(=O)N(C(C)c3ccc(OC)cc3)C[C@]23C=C[C@H]1O3 (stereo partly drawn),7.4
18,O=C1c2ccccc2C(=O)N1Cc1nc2ccccc2o1,15.8
19,COc1ccc(CCNC(=O)CCS(=O)(=O)c2ccc3c(c2)NC(=O)CO3)cc1OC,8.71
20,CCCC(=O)OC/C(O)=C(\C#N)c1nc2ccccc2[nH]1,16
21,COC1(OC)N=C(NC(=O)Nc2ccccc2)C2(C#N)C(c3ccccc3)C12C#N (stereo not drawn),12.1
22,C=CCn1c(SCC2CCCCO2)nc2sc(CC)cc2c1=O (stereo not drawn),7.11

row,SMILES,"hERG current change (%, negative = inhibition) at 1uM [%]"
1,O=C(ON=C1CCN(S(=O)(=O)c2ccccc2)CC1)c1cccc(Cl)c1,5.55
2,ONC(=Nc1ccc(Cl)cc1)c1ccccc1Cl,7.69
3,COC(=O)c1nc(-c2ccc3c(n2)C(=O)C(N)=C(OC)C3=O)c(N)c(-c2ccc(OC)c(OC)c2O)c1C,9.36
4,Cc1ccc(C(C)(C)C)c(SCC(=O)Nc2nnc(C)s2)c1,5.63
5,COC(=O)c1ccc(CSc2nnc(C)s2)cc1,10.7
6,Cc1cc(C(=O)NN=C(Cc2ccccc2)Cc2ccccc2)c(C)o1,4.29
7,COC(=O)C1=C(c2ccc(F)cc2F)C[C@@H]2CC[C@H]1N2C(=O)N1CCOCC1,12.6
8,COc1ccccc1OCCCCn1ncc2ccc(OC)c(OC)c2c1=O,10.2
9,O=C(CN1C(=O)CN=C(c2ccccc2Cl)c2cc(Cl)ccc21)NCc1ccco1,11.8
10,COc1ccc(Cn2c(O)c(/C=N/NC(=O)c3ccccc3)c(=O)[nH]c2=O)cc1,-7.09
11,CC(C)C(O)(C(=O)NNc1ccccc1)C(C)C,7.85
12,CC1=C(C(=O)NCc2ccccn2)C2(CCC(C)CC2)OC1=O (stereo not drawn),-1.16
13,COc1ccc(NC(=O)CSCC(=O)Nc2ccc(S(=O)(=O)N3CCCC3)cc2)cc1,-1.02
14,Cc1ccc(C(=O)CSc2nc3cc(S(=O)(=O)N4CCOCC4)ccc3o2)cc1,11.2
15,O=C(Cn1nc(C(=O)O)c2ccccc2c1=O)Nc1ccc2c(c1)C(=O)c1ccccc1C2=O,6.96
16,O=C1NCCO1,-4.27
17,COc1ccc(C2C(C#N)=C(N)Oc3cc(O)ccc32)cc1C (stereo not drawn),-1.73
18,Cc1ccc(C(=O)C2Oc3ccccc3C3CC(c4ccc(C)cc4)=NN23)cc1 (stereo not drawn),11.1
19,O=C(c1cnc2n(c1=O)CCS2)N1CCCc2ccccc21,3.16
20,CC(C)[C@H](NC(=O)OC(C)(C)C)c1nnc(SCc2cccc(F)c2)o1,-4.82
21,COC(=O)CN(c1nc(C)c(Br)c(OC)n1)S(=O)(=O)c1ccc(C)cc1,5.18
22,O=C(O)c1ccccc1C(=O)Nc1cc(C(F)(F)F)ccc1N1CCCC1,-4.27

row,SMILES,"hERG current change (%, negative = inhibition) at 1uM [%]"
1,Cc1ccccc1N(CC(=O)NC1CCCC1)C(=O)C1(C)CC(=O)N=C2C=CC=CN21 (stereo not drawn),16.9
2,COc1cc(C(=O)Nc2c(C)cc(C)cc2C)c([N+](=O)[O-])cc1OC,11
3,Nc1cc(C(=O)O)c(N)c2c1C(=O)c1ccccc1C2=O,12.8
4,Cc1cc(=O)oc2cc(OCC(=O)N3CCC(C(N)=O)CC3)ccc12,9.4
5,COCCNC(=S)Nc1ccc(N2CCOCC2)c(S(=O)(=O)Nc2ccccc2OC)c1,3.6
6,CC(C)C(C(=O)N1CCOCC1)N1C(=O)c2ccccc2C1=O (stereo not drawn),11.3
7,O=C(CSc1n[nH]c(-c2ccncc2)n1)Nc1ccc(Cl)c(Cl)c1,14.8
8,COc1ccc(Nc2nc(-c3ccccc3)nc3ccccc23)cc1.Cl,17.9
9,C=CCn1cc(C=C2C(=O)NC(=O)NC2=O)c2ccccc21,7.96
10,COc1cccc(Oc2ccc(OC)cc2C(=O)O)c1,14.2
11,Cn1c(-c2ccccc2)cc2onc(-c3ccccc3)c2c1=O,18.4
12,CCOc1cc(CN2CCCC(CNC(=O)c3ccc(F)cc3)C2)ccc1OC (stereo not drawn),-17
13,CCCCN(Cc1ccccc1)C(=O)C1CCCN(S(=O)(=O)c2cnc[nH]2)C1 (stereo not drawn),10.7
14,COc1ccc(OC)c(CN2CCN(C(=O)CCC(=O)c3cccs3)CC2)c1,10.2
15,C=CCSc1nnc(COc2ccc(=O)n(-c3ccccc3)n2)n1CC,6.6
16,O=C(NC1CCCCCC1)c1ccc(N2CCCC2=O)cc1,8.15
17,c1ccc(OCc2nnc3sc(-c4cccs4)nn23)cc1,3.89
18,CCOCCCn1c(N)c(C(=O)Nc2sc3c(c2C(=O)OC)CCCC3)c2nc3ccccc3nc21,10.8
19,Cc1c(C)c2c(OCC(=O)NC3CC3)cc3c(c2oc1=O)CCC(C)(C)O3,11.7
20,CCOCCCNC(=O)Cn1cc2c(n1)CCCCC2,6.86
21,Cc1cc(C)n(-c2nc3c(c(=O)n(C)c(=O)n3C)n2CCO)n1,13.1
